Among all 350,000 compounds or so, about 9,900 (2.8%) were called active. This list was built around the results that the source calls inconclusive (neither active nor inactive); the mix of calls is not that of the screen. The call rests on the fitted dose curve; in most records, active means well fitted activation curve with a large enough effect; inconclusive means small, poorly fitted or top-dose-only effect; inactive means no such curve, though single readings can be large or run the other way. Potencies of inconclusive entries are left out as doubtful fits.
assay: A quantitative high throughput screen for small molecules that induce DNA re-replication in MCF 10a normal breast cells.; further: nearly all actives have a fitted effect of over 50% in size; on activity, positive = re-replication: % of control where 0% means no effect; details: MCF 10A DNA re-replication, Hoechst nuclear intensity, 48 h; activity, positive = re-replication: at 46.1 µM (top of the series)
Potency means the concentration at half of the fitted maximal effect; tags describe the fitted curve by direction and shape.

Compound	Potency	activity, positive = re-replication
CC1=NOC(=O)/C1=C\c1ccc2c(c1)OCO2	inconclusive [activator, single point]	–
CC1(C)Cc2c(sc3nnn(Cc4ccccc4)c(=O)c23)CO1	inconclusive [activator, full curve]	–
O=C(CSc1nnnn1-c1ccccc1)Nc1ncc2c(n1)CC(c1ccccc1)CC2=O (stereo unspecified)	inconclusive [activator, partial curve, poor fit]	–
Cc1ccc(S(=O)(=O)C(C#N)c2nc3ccccc3nc2N2CCC(C)CC2)cc1 (stereo unspecified)	inconclusive [activator, single point]	–
Cc1cc(N(C)/N=C/c2ccccc2O)nc(-c2ccccc2O)n1	inconclusive [activator, single point]	–
COc1ccc(CN2CCN(CCSc3ccc(C)cc3)CC2)c(OC)c1OC	–	inactive: 2.11%
COc1ccc(C(C)=O)c(Oc2cc(NN3CCCCC3)c([N+](=O)[O-])cc2[N+](=O)[O-])c1	inconclusive [activator, partial curve, poor fit]	–
O=C(/C=C\c1ccc2c(c1)OCO2)CC1(O)C(=O)Nc2ccccc21 (stereo unspecified)	inconclusive [activator, single point]	–
CCCC(=O)Nc1ccc(-c2nc3ncccc3o2)cc1	–	inactive: 8.68%
CN(c1ccccc1)S(=O)(=O)c1cc(C(=O)Nc2nc3ccccc3[nH]2)ccc1Cl	inconclusive [activator, partial curve]	–
O=C(C1CC1)N1N=C(c2ccc(F)cc2)CC1(O)C(F)(F)F (stereo unspecified)	inconclusive [activator, single point]	–
COc1ccccc1NC(=O)C(C)OC(=O)/C=C/c1ccc2ccccc2n1 (stereo unspecified)	inconclusive [activator, single point]	–
CCO[C@@H]1OC(C(=O)N2CCCCCCC2)=C[C@H](c2csc3ccccc23)[C@H]1CCCO	inconclusive [activator, single point]	–
O=C(NCCNC(=O)c1cc(OCC(F)(F)F)ccc1OCC(F)(F)F)Nc1ccc(OC(F)(F)F)cc1	inconclusive [activator, partial curve, poor fit]	–
CC1CCC2(CC1)NC(=O)N(CC(=O)N1c3ccccc3CC1C)C2=O (stereo unspecified)	inconclusive [activator, partial curve, poor fit]	–
CC(C)C(=O)NC(c1ccc([N+](=O)[O-])cc1)c1c(O)ccc2ccccc12 (stereo unspecified)	inconclusive [activator, single point]	–
NC(N)=NN=C1c2ccccc2-c2ccccc21	–	inactive: 14.4%
CN(CC1CCCO1)S(=O)(=O)c1ccc(C(=O)N2CCN(c3ccccc3)CC2)cc1 (stereo unspecified)	–	inactive: 4.25%
O=c1c2c3c(sc2[nH]c(=S)n1Cc1ccco1)CCC3	inconclusive [activator, single point]	–
Cc1ccc(N2CCN(c3ccc(NCc4nc5ccccc5n4C)cc3)CC2)cc1	inconclusive [activator, full curve, poor fit]	–
CCN(CC)CCCN1C=C2C(=O)C(C)(OC(=O)C3CCCC3)C(=O)C(c3ccccc3)=C2C=C1CCCC(=O)OC (stereo unspecified)	inconclusive [activator, partial curve, poor fit]	–
O=C(c1ccco1)N1CCN(c2nnc(-c3ccccc3)c3ccccc23)CC1	–	inactive: -4.47%
CSc1nc(N(C)NC(=O)c2cccc(C)c2)c2ccccc2n1	active: 0.231 µM	–
CC1(OC(=O)c2ccc(Cl)nc2)C(=O)C=C2C=C3CCCN3C=C2C1=O (stereo unspecified)	inconclusive [activator, full curve, poor fit]	–

Compound	Potency	activity, positive = re-replication
COc1cccc(/C=C/C(=O)OCC(=O)NC2CC2)c1OC	inconclusive [activator, single point]	–
O=C(Nc1ccc(F)cc1)NC1(C(=O)NCc2ccco2)CCCCC1	–	inactive: 16.7%
CC(C)OCCCNC(=O)c1ccc2c(c1)NC(=O)c1ccccc1S2	–	inactive: 17.4%
COC(=O)C1=C(C)N(Cc2ccccc2)C(=O)N[C@H]1c1ccccc1	inconclusive [activator, single point]	–
COc1cc(NC(=O)C2CSC3(C)CCC(=O)N23)c(OC)cc1Cl (stereo unspecified)	–	inactive: 11.4%
Cc1cc2c(N=O)c(NO)ccc2[nH]1	inconclusive [activator, partial curve]	–
CCOc1ccc(Nc2oc(-c3ccc(Cl)cc3)nc2C#N)cc1	active: 20.6 µM	–
COc1cccc(-c2ccc(NC(=O)C3CCCN(CCCn4cccn4)C3)cc2)c1 (stereo unspecified)	inconclusive [activator, partial curve, poor fit]	–
CC(C)(OC(=O)c1ccc(C#N)cc1)c1cc2ccccc2c(=O)o1	inconclusive [activator, partial curve, poor fit]	–
Cc1cc(C)c(C(=O)COC(=O)c2nn(C)c(=O)c3ccccc23)cc1C	–	inactive: 0.975%
O=C(COc1ccccc1Cl)Nc1ccc(NC(=O)c2ccco2)cc1	–	inactive: 0.67%
CCOC(=O)C(=CNc1ccccc1N1CCOCC1)C(=O)OCC	inconclusive [activator, single point]	–
Cc1c2c(cc3c1[nH]c1ccccc13)C=NCC2	active: 20.6 µM	–
CCOC(=O)C(C)Oc1cccc2c(=O)n(CC(=O)NCc3ccccc3)ccc12 (stereo unspecified)	active: 0.58 µM	–
Cc1ccsc1C(=O)N1CCCC(CCC(=O)N2CCN(c3ccccn3)CC2)C1 (stereo unspecified)	active: 6.51 µM	–
CC(C)OCCCn1c(SCC(=O)N2CCc3ccccc32)nc2ccccc2c1=O	–	inactive: -3.64%
Cc1ccc2c(CC(=O)N(C)c3c(N)n(Cc4ccccc4)c(=O)[nH]c3=O)coc2c1	–	inactive: -5.23%
CC1=Nc2cc(C(=O)NCC3CCCO3)ccc2Sc2ccc(Br)cc21 (stereo unspecified)	active: 18.4 µM	–
CC(=O)Nc1cc(OC(C)=O)c2nonc2c1OC(C)=O	inconclusive [activator, single point]	–
COc1ccc(Cl)cc1NC(=O)c1cccc([N+](=O)[O-])c1O	inconclusive [activator, partial curve]	–
CC(C)N(C(=O)[C@H]1C[C@H](CC(=O)NCCCN(C)C)C(=O)N2CCc3c([nH]c4cc(CCC(=O)N(C)C)ccc34)[C@]12C)C(C)C	inconclusive [activator, partial curve, poor fit]	–
C/C(=N\NC(=S)NC(C)C)c1ccc2c(c1)OCCO2	inconclusive [activator, full curve]	–
CCOC(=O)c1cc2c(ccn2C)n1CC(=O)N(C)C	active: 0.651 µM	–
Cc1noc(C)c1COc1cccc(C(=O)Nc2ccc(Br)cc2F)c1	active: 5.8 µM	–

Compound	Potency	activity, positive = re-replication
O=C(NCCc1ccccc1)c1nc2nc(-c3cccs3)cc(C(F)(F)F)n2n1	inconclusive [activator, partial curve, poor fit]	–
CCOC(=O)/C(C#N)=C1/C(=O)N(Cc2ccccc2)c2ccccc21	inconclusive [activator, single point]	–
O=C(Nc1ccc(N2CCN(C(=O)c3ccco3)CC2)c(Cl)c1)c1cccnc1	–	inactive: -1.21%
O=C(NCCCn1ccnc1)c1ccc2ccccc2c1	–	inactive: 5.52%
COc1ccc(NC(=O)c2cc3c(=O)n4ccccc4nc3n2C)c(OC)c1	inconclusive [activator, partial curve, poor fit]	–
COc1cccc(NC(=S)NC(C)c2ccc(OC)c(OC)c2)c1 (stereo unspecified)	–	inactive: 3.24%
Cc1cc(=O)n2nc(N3CCC(C(=O)NCCc4ccc(Cl)cc4)CC3)sc2n1	–	inactive: 0.0147%
NC(=O)c1ccccc1NC(=O)Nc1cccc(Cl)c1Cl	–	inactive: -1.65%
COc1ccc(NC(=O)CSc2nnc(-c3ccccc3Cl)n2Cc2ccco2)c(OC)c1	–	inactive: 3.78%
CC1=CC(C)(C)N(S(=O)(=O)c2ccc(F)cc2)c2ccccc21	inconclusive [activator, partial curve, poor fit]	–
C[C@]12CCC(=O)C=C1CC[C@@H]1[C@@H]2CC[C@@]2(C)[C@H]1CC[C@@]21CCC(=O)O1	–	inactive: -0.252%
COc1ccc2c(c1)c1nc3ccccc3nc1n2Cc1ccc(OC)c(OC)c1	active: 8.2 µM	–
O=c1[nH]c(C2CCN(S(=O)(=O)c3cccc(Cl)c3)CC2)nc2c1nnn2Cc1ccccc1	inconclusive [activator, partial curve, poor fit]	–
CCCCC[C@@H](O)c1cc2ccccc2c(=O)o1	inconclusive [activator, single point]	–
CC(C)CCn1c(Oc2ccccc2Cl)nc2c1c(=O)n(C)c(=O)n2C	inconclusive [activator, single point]	–
Cc1cc(C(=O)OCn2nnc3ccccc3c2=O)c(C)n1-c1ccccc1	–	inactive: 11.6%
O=C1S/C(=C\c2ccc(N3CCOCC3)o2)C(=O)N1c1ccccc1	inconclusive [activator, single point]	–
COc1ccc(CC(=O)NCC2(c3ccc(OC)c(OC)c3)CCCC2)cc1	inconclusive [activator, single point]	–
Cc1ccnc(NS(=O)(=O)c2ccc3ccccc3c2)n1	–	inactive: 3.67%
C=CCn1c(NC(=O)c2ccc(C)cc2)c(C#N)sc1=N	inconclusive [activator, single point]	–
COc1cccc(-c2c(C(=O)O)cc(O)c3ccc(OC)cc23)c1	–	inactive: -3.69%
O=C(Nc1ccc(S(=O)(=O)N2CCc3ccccc32)cc1)c1ccc2c(c1)OCO2	–	inactive: 2.31%
Cn1c(/N=C/c2ccccc2[N+](=O)[O-])nc2ccccc21	–	inactive: 9.08%

— PubChem BioAssay AID624296 (National Center for Advancing Translational Sciences (NCATS), 2012)
